Test results reported in PubChem BioAssay AID1508624 (National Center for Advancing Translational Sciences (NCATS), 2021).
Among all 48,000 compounds or so, about 120 (0.25%) were called active. Another 4% or so got no clear call; they are omitted. Calls come from the whole dose curve; as a rule, active = well fitted activation curve with a large enough effect; inconclusive = small, poorly fitted or top-dose-only effect, or another doubt; inactive = no such curve, though single readings can be large or run the other way. Some of the results follow.

Experiment: Primary qHTS for Identification of Small Molecule Activators of Huntingtin-Antisense Promoter Activity; note: nearly all actives have a fitted effect of over 55% in size
Details: HEK293 HTT-AS promoter firefly luciferase reporter, 24 h; series mostly up to 57.5 µM; activity change, positive = activation: at the top concentration
In short: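 HEK293 Fluc reporter, 2,500 cells/well, 24 h pre-culture; cpds up to 57.5 uM final, 24 h 37 degrees C; Dual-Glo, 10 min RT; normalized vehicle = 0%, zero RLU = -100%.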

Activity change, positive = activation, inactive:
Cc1c(CCC(=O)N2CCCCC2)c(=O)oc2cc3occ(C(C)(C)C)c3cc12 -12.6%
Cc1ccc2nc(NC(=O)CSc3ncc(C(=O)Nc4ccc(F)cc4)c(=O)n3C)sc2c1 -3.83%
CCc1ccc(NC(=O)Cn2c(=O)n(-c3ccc(OC)cc3)c(=O)c3ccc(C(=O)NCc4ccc(C)cc4)cc32)cc1 -1.49%
COCCn1cc(C(=O)NCCCOC(C)C)c2c3ccccc3n(C)c2c1=O -13.1%
COc1ccc(CNC(=O)Cc2ccc(NC(=O)N3CCSc4ncccc43)cc2)cc1 -15.5%
Cc1ccc(Cc2nc3ccccc3nc2SCC(=O)N2CCN(c3ccc(F)cc3)CC2)cc1 3.18%
CCOC(=O)c1noc2nc(C)n(Cc3cccc([N+](=O)[O-])c3)c(=O)c12 9.84%
Cc1nnc(SCC(=O)NCc2ccccc2Cl)c2nn(-c3ccccc3)c(C)c12 -52.7%
CCc1ccc(-n2nc(C)c3c(C)cc(=O)n(CC(=O)Nc4ccc(F)cc4C)c32)cc1 1.2%
Cc1cc(C)c(Cn2c(C3CC(=O)N(c4ccc(F)cc4)C3)nc3ccccc32)c(C)c1 (stereo unspecified) -24.6%
CC(C)CCN(C(=O)Nc1ccccc1)C(C)c1cccs1 (stereo unspecified) -25.9%
CC(C)OC(=O)c1c(-c2ccccc2)c(-c2ccccc2)nn(C)c1=O -26.1%
CCOC(=O)c1ccc(NC(=O)CCn2ccc(C)n2)cc1 -2.45%
COc1cccc(NC(=O)CSc2nc(=O)n(Cc3ccncc3)c3c2CCC3)c1 -18.5%
CNS(=O)(=O)c1cn(CC(=O)Nc2ccc(C(C)=O)cc2)cc1S(=O)(=O)NC -4.52%
Cc1ccc(CN2CCN(C3CCN(C(=O)Nc4ccc(C)cc4Cl)CC3)C(=O)C2=O)cc1 -13%
CC(=O)N1CCc2cc(CNC(=O)c3ccccc3Br)ccc21 22.6%
CCCCNS(=O)(=O)c1ccc(C)c(-c2nnc3c4ccccc4c(C)nn23)c1 -21.1%
O=C(Nc1ccc(Br)cc1)c1ccc(F)c(S(=O)(=O)N2CCc3ccccc32)c1 -44.6%
O=C(NCc1cccs1)C1CCN(C(=O)N2CCOc3ccc(Cl)cc32)CC1 -6.76%
CC(=O)N1CCc2cc(S(=O)(=O)NC(Cc3ccccc3)C(=O)NCc3ccc(C)cc3)ccc21 (stereo unspecified) -17.3%
COc1ccc(CCNC(=O)C2CCN(S(=O)(=O)c3c(C)noc3/C=C/c3ccc(C)cc3)CC2)cc1OC -7.97%
Cc1ccc(S(=O)(=O)C(CNC(=O)C(=O)NCc2ccccc2C)c2cccs2)cc1 (stereo unspecified) -42.5%
Nc1ccn(C[C@@H](CO)OCP(=O)(O)O)c(=O)n1 -2.8% [at 25.1 µM, percent change from vehicle, -100% = no light]
Cc1ccc(Cn2ccnc2SCC(=O)Nc2nc3ccccc3s2)cc1 -0.733%
NS(=O)(=O)c1ccc(NC(=O)C(=O)Nc2ccc3nc4n(c(=O)c3c2)CCCCC4)cc1 -9.3%
